# Test results reported in PMC4336329 (PLoS ONE, 2015).
# The campaign covered roughly 310,000 compounds. About 2,200 (0.71%) showed an effect of 50% or more. The effect is printed as a negative number. The list shows a part of the results.
# Target: human ether-à-go-go-related gene (hERG) potassium channel (human, UniProt Q12809)
# Assay: primary screen, population patch clamp on CHO cells stably expressing hERG
# Chain of human ether-à-go-go-related gene (hERG) potassium channel (Q12809 whole entry, looked up): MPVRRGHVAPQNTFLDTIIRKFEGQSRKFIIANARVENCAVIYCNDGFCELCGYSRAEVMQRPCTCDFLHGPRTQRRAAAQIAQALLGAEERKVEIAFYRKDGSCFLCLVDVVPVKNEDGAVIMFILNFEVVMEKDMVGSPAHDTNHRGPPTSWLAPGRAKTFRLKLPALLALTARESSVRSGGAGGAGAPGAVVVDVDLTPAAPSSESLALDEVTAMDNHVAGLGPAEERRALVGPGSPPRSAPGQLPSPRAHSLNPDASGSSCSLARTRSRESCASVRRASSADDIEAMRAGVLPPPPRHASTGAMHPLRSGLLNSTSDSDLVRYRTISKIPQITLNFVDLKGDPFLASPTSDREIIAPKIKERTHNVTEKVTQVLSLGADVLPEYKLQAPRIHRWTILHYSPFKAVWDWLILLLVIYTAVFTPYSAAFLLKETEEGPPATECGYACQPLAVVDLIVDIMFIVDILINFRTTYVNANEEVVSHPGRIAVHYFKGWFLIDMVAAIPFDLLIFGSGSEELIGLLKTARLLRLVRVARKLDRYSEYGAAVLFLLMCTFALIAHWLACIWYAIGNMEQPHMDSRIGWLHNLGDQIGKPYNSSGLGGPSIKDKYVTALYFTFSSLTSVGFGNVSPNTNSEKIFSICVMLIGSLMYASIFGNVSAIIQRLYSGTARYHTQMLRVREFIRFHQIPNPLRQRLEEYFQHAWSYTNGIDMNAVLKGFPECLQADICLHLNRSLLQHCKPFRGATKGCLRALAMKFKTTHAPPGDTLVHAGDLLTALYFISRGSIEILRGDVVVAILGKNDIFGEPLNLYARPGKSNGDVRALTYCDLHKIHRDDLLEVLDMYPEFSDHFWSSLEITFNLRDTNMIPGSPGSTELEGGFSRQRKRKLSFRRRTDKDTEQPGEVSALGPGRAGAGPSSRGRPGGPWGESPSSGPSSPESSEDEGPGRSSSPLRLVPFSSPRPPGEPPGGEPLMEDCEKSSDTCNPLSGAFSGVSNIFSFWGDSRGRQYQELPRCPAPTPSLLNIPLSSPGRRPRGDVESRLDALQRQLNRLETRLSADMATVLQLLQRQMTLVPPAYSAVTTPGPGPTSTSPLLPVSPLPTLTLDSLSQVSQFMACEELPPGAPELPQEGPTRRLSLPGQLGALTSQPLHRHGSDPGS
row,SMILES,"hERG current change (%, negative = inhibition) at 1uM [%]"
1,CCOC(=O)c1ccccc1NC(=O)[C@@H]1CCCN1C(=O)OC(C)(C)C,3.14
2,COc1cccc(COC(=O)c2cc(S(=O)(=O)N3CCCCC3)ccc2N2CCOCC2)c1OC,20.2
3,COc1ccc(C(=O)Nc2nc3ccccc3[nH]2)cc1OC,-2.31
4,Cc1ccc(S(=O)(=O)NCC(=O)N2CCCC2)cc1,6.85
5,Cc1ccc(C(=O)NC(=S)Nc2nc(-c3cccc([N+](=O)[O-])c3)cs2)c(Cl)c1,7.88
6,Cc1nc(SC2CC(=O)N(c3ccccc3)C2=O)n[nH]1 (stereo not drawn),9.52
7,CCOc1ccc(C(=O)Nc2nccs2)cc1[N+](=O)[O-],8.26
8,O=C(CSc1nnc(-c2cccnc2)o1)Nc1ccccn1,4.97
9,CCOC(=O)c1c(C)n(Cc2ccc(F)cc2)c2ccc(O)cc12,3.25
10,O=C(CC(c1ccccc1)c1ccccc1)Nc1ncn[nH]1,8.62
11,Cn1cc(S(=O)(=O)NCc2ccco2)c(=O)n(C)c1=O,-1.91
12,CC(C)NC(=O)CCn1c(=S)oc2ccccc21,3.63
13,Cc1cc(C)cc(NC(=O)N2c3ccccc3NC(=O)CC2C)c1 (stereo not drawn),10.3
14,O=C(CN1CCC(Cc2ccccc2)CC1)Nc1ccc2c(c1)OCCO2,4.99
15,Cc1[nH]c2ccccc2c1C(=O)C(=O)NCCCn1ccnc1,9.93
16,Fc1ccc2nc3c(nc2c1)CCCC3,6.91
17,OCCN=C(c1ccccc1)C12CN3CN(CN(C3)C1)C2,-8.38
18,CC1(C)C2CCC(C2)C1(C)N=C1OC(CCl)CS1 (stereo not drawn),11.7
19,C[C@H](NC(=O)c1ccco1)C(=O)Nc1cccc([N+](=O)[O-])c1,9.59
20,Cc1oc2c(cc(NS(=O)(=O)c3cccs3)c3ccccc32)c1C(=O)OC(C)C,10.3
21,CCCS(=O)(=O)N1CCN(C2Cc3ccccc3C2)CC1.O=C(O)C(=O)O,5.42
22,COCCNC(=O)CN(c1ccc(C)cc1)S(=O)(=O)c1ccccc1,19.4
23,COc1ccc(C(=O)C2CCCN(C(=O)c3cc(C4CC4)[nH]n3)C2)c(C)c1 (stereo not drawn),37.1

row,SMILES,"hERG current change (%, negative = inhibition) at 1uM [%]"
1,CC(C)=CCc1cc([C@@H]2CC(=O)c3ccc(O)c(CC=C(C)C)c3O2)ccc1O,10.1
2,CCOc1ccc(OCC)c(NS(=O)(=O)c2cn(C)cn2)c1,20.4
3,O=C1CS/C(=N/N=C/c2ccco2)N1Cc1ccc(F)cc1,11.2
4,Cc1ccc(S(=O)(=O)Nc2ccc(Br)cc2C(NCC(=O)O)c2ccccc2)cc1 (stereo not drawn),-0.402
5,CCOC(=O)CNC(=O)CSc1nnc(NC(=O)c2ccc(C)cc2)s1,10.9
6,COc1ccc(C(=O)CCS(=O)(=O)c2ccc(C)cc2)cc1,8.55
7,CN(C)/C=N/c1c(C#N)cnn1-c1ccc(C(F)(F)F)cn1,17.5
8,CCc1sc(C(=O)NC)cc1Br,7.56
9,COc1ccc(OC)c(CN2CCN(CCCc3ccccc3)C(CCO)C2)c1 (stereo not drawn),-27.4
10,Cc1ccc(/C=C2/Sc3ccc(C(=O)N4CCN(C)CC4)cc3NC2=O)cc1,13.1
11,O=C1c2ccccc2C(=O)N1Cc1cc(-c2ccccc2Cl)no1,8.86
12,O=C(Nc1ccccc1-c1nnn(CC(=O)N2CCCc3ccccc32)n1)c1ccc(Cl)cc1,6.59
13,COC(=O)c1ccc(Cl)c(NS(=O)(=O)c2ccc3c(c2)OCCO3)c1,7.06
14,CN(c1cccc(NC(=O)CN(c2cccc(Cl)c2)S(=O)(=O)c2ccccc2)c1)S(C)(=O)=O,18
15,O=C(NCc1ccco1)c1ccc(Oc2ccccc2)cc1,0.484
16,Cc1c(NC(=S)NC(NC(=O)C(C)C)C(Cl)(Cl)Cl)c(=O)n(-c2ccccc2)n1C (stereo not drawn),7.95
17,CN(NC(=O)C(C)(C)C)c1nc(-c2ccccc2)nnc1C(F)(F)F,4.99
18,CC(NC(=O)C(C)N1C(=O)c2cccc([N+](=O)[O-])c2C1=O)c1ccccc1 (stereo not drawn),14.9
19,COc1ccc(N(CC(O)CN2C(=O)NC(C)(C)C2=O)S(=O)(=O)c2ccccc2)cc1 (stereo not drawn),0.639
20,O=C(COc1ccccc1)Nc1nc(-c2ccc(S(=O)(=O)N3CCOCC3)cc2)cs1,8.24
21,O=C(Nc1nc2ccccc2n1CCOc1ccccc1)c1ccco1,4.26
22,CCc1ccccc1S(=O)(=O)c1c(C)cc(C)nc1Cl,13.1
